# Results reported in the supplement of paper PMC8728848.
# This is one part of the list.
# B1: AT1G15820(NC) (Arabidopsis thaliana) (protein)
# chain: MAMAVSGAVLSGLGSSFLTGGKRGATALASGVGDAIAPFSFGSLLGTQLLLMGWVESKRWVDFFNPDSQSVEWATPWSKTAENFANYTGDQGYPGGRFFDPLGLAGKNRDGVYEPDFEKLERLKLAEIKHSRLAMVAMLIFYFEAGQGKTPLGALGL
# Legend:
# Test in all cases: glycan array binding signal (z-score within array); higher = stronger binding
# Settings in all cases: glycan notation: IUPAC condensed, linker removed
# GlcNAc(b1-3)Gal(b1-4)Glc = target: GlcNAc(b1-3)Gal(b1-4)Glc
# Method in brief: (§1)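 Arrays were curated from the Consortium for Functional Glycomics database, 3228 in total, and kept only where the protein sequence was available. Binding is expressed as a within-array Z-score. This score was averaged across arrays of the same protein sequence at different concentrations or buffers and across linkers, and negative values can be read as non-binding.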
# [1] = target: GlcNAc(b1-3)Gal(b1-4)GlcNAc
# Method in brief: as §1
# [2] = target: GlcNAc(b1-3)Gal(b1-4)GlcNAc(b1-2)Man(a1-3)[GlcNAc(b1-3)Gal(b1-4)GlcNAc(b1-2)Man(a1-6)]Man(b1-4)GlcNAc(b1-4)GlcNAc
# Method in brief: as §1
# [3] = target: GlcNAc(b1-3)Gal(b1-4)GlcNAc(b1-2)Man(a1-3)[GlcNAc(b1-3)Gal(b1-4)GlcNAc(b1-2)Man(a1-6)]Man(b1-4)GlcNAc(b1-4)[Fuc(a1-6)]GlcNAc
# Method in brief: as §1
# [4] = target: GlcNAc(b1-3)Gal(b1-4)GlcNAc(b1-2)[GlcNAc(b1-3)Gal(b1-4)GlcNAc(b1-6)]Man(a1-6)[GlcNAc(b1-3)Gal(b1-4)GlcNAc(b1-2)Man(a1-3)]Man(b1-4)GlcNAc(b1-4)GlcNAc
# Method in brief: as §1
# [5] = target: GlcNAc(b1-3)Gal(b1-4)GlcNAc(b1-3)Gal(b1-4)GlcNAc
# Method in brief: as §1
# [6] = target: GlcNAc(b1-3)Gal(b1-4)GlcNAc(b1-3)Gal(b1-4)GlcNAc(b1-2)Man(a1-3)[GlcNAc(b1-3)Gal(b1-4)GlcNAc(b1-3)Gal(b1-4)GlcNAc(b1-2)Man(a1-6)]Man(b1-4)GlcNAc(b1-4)GlcNAc
# Method in brief: as §1
# [7] = target: GlcNAc(b1-3)Gal(b1-4)GlcNAc(b1-3)Gal(b1-4)GlcNAc(b1-2)Man(a1-3)[GlcNAc(b1-3)Gal(b1-4)GlcNAc(b1-3)Gal(b1-4)GlcNAc(b1-2)Man(a1-6)]Man(b1-4)GlcNAc(b1-4)[Fuc(a1-6)]GlcNAc
# Method in brief: as §1
# [8] = target: GlcNAc(b1-3)Gal(b1-4)GlcNAc(b1-3)Gal(b1-4)GlcNAc(b1-2)[GlcNAc(b1-3)Gal(b1-4)GlcNAc(b1-3)Gal(b1-4)GlcNAc(b1-6)]Man(a1-6)[GlcNAc(b1-3)Gal(b1-4)GlcNAc(b1-3)Gal(b1-4)GlcNAc(b1-2)Man(a1-3)]Man(b1-4)GlcNAc(b1-4)[Fuc(a1-6)]GlcNAc
# Method in brief: as §1
# [9] = target: GlcNAc(b1-3)Gal(b1-4)GlcNAc(b1-3)Gal(b1-4)GlcNAc(b1-3)Gal(b1-4)GlcNAc(b1-2)Man(a1-3)[GlcNAc(b1-3)Gal(b1-4)GlcNAc(b1-3)Gal(b1-4)GlcNAc(b1-3)Gal(b1-4)GlcNAc(b1-2)Man(a1-6)]Man(b1-4)GlcNAc(b1-4)GlcNAc
# Method in brief: as §1
# [10] = target: GlcNAc(b1-3)Gal(b1-4)GlcNAc(b1-3)Gal(b1-4)GlcNAc(b1-3)Gal(b1-4)GlcNAc(b1-2)Man(a1-3)[GlcNAc(b1-3)Gal(b1-4)GlcNAc(b1-3)Gal(b1-4)GlcNAc(b1-3)Gal(b1-4)GlcNAc(b1-2)Man(a1-6)]Man(b1-4)GlcNAc(b1-4)[Fuc(a1-6)]GlcNAc
# Method in brief: as §1
# [11] = target: GlcNAc(b1-3)Gal(b1-4)GlcNAc(b1-3)Gal(b1-4)GlcNAc(b1-3)Gal(b1-4)GlcNAc(b1-2)[GlcNAc(b1-3)Gal(b1-4)GlcNAc(b1-3)Gal(b1-4)GlcNAc(b1-3)Gal(b1-4)GlcNAc(b1-6)]Man(a1-6)[GlcNAc(b1-3)Gal(b1-4)GlcNAc(b1-3)Gal(b1-4)GlcNAc(b1-3)Gal(b1-4)GlcNAc(b1-2)Man(a1-3)]Man(b1-4)GlcNAc(b1-4)[Fuc(a1-6)]GlcNAc
# Method in brief: as §1
# [12] = target: GlcNAc(b1-3)Gal(b1-4)GlcNAc(b1-3)Gal(b1-4)GlcNAc(b1-3)Gal(b1-4)GlcNAc(b1-3)Gal(b1-4)GlcNAc(b1-2)Man(a1-3)[GlcNAc(b1-3)Gal(b1-4)GlcNAc(b1-3)Gal(b1-4)GlcNAc(b1-3)Gal(b1-4)GlcNAc(b1-3)Gal(b1-4)GlcNAc(b1-2)Man(a1-6)]Man(b1-4)GlcNAc(b1-4)GlcNAc
# Method in brief: as §1
# [13] = target: GlcNAc(b1-3)Gal(b1-4)GlcNAc(b1-3)Gal(b1-4)GlcNAc(b1-3)Gal(b1-4)GlcNAc(b1-3)Gal(b1-4)GlcNAc(b1-2)Man(a1-3)[GlcNAc(b1-3)Gal(b1-4)GlcNAc(b1-3)Gal(b1-4)GlcNAc(b1-3)Gal(b1-4)GlcNAc(b1-3)Gal(b1-4)GlcNAc(b1-2)Man(a1-6)]Man(b1-4)GlcNAc(b1-4)[Fuc(a1-6)]GlcNAc
# Method in brief: as §1
# [14] = target: GlcNAc(b1-3)Gal(b1-4)GlcNAc(b1-3)Gal(b1-4)GlcNAc(b1-3)Gal(b1-4)GlcNAc(b1-3)Gal(b1-4)GlcNAc(b1-2)[GlcNAc(b1-3)Gal(b1-4)GlcNAc(b1-3)Gal(b1-4)GlcNAc(b1-3)Gal(b1-4)GlcNAc(b1-3)Gal(b1-4)GlcNAc(b1-6)]Man(a1-6)[GlcNAc(b1-3)Gal(b1-4)GlcNAc(b1-3)Gal(b1-4)GlcNAc(b1-3)Gal(b1-4)GlcNAc(b1-3)Gal(b1-4)GlcNAc(b1-2)Man(a1-3)]Man(b1-4)GlcNAc(b1-4)[Fuc(a1-6)]GlcNAc
# Method in brief: as §1
# [15] = target: GlcNAc(b1-3)Gal(b1-4)GlcNAc(b1-3)Gal(b1-4)GlcNAc(b1-3)GalNAc
# Method in brief: as §1
# [16] = target: GlcNAc(b1-3)Gal(b1-4)GlcNAc(b1-3)GalNAc
# Method in brief: as §1
# [17] = target: GlcNAc(b1-3)Gal(b1-4)GlcNAc(b1-3)[GlcNAc(b1-3)Gal(b1-4)GlcNAc(b1-3)]GalNAc
# Method in brief: as §1
# [18] = target: GlcNAc(b1-3)Gal(b1-4)GlcNAc(b1-6)[Gal(b1-3)]GalNAc
# Method in brief: as §1
# [19] = target: GlcNAc(b1-3)Gal(b1-4)GlcNAc(b1-6)[GlcNAc(b1-3)Gal(b1-3)]GalNAc
# Method in brief: as §1
# [20] = target: GlcNAc(b1-3)Gal(b1-4)GlcNAc(b1-6)[GlcNAc(b1-3)]Gal(b1-4)GlcNAc
# Method in brief: as §1
# GlcNAc(b1-3)GalNAc = target: GlcNAc(b1-3)GalNAc
# Method in brief: as §1
# GlcNAc(b1-3)Man = target: GlcNAc(b1-3)Man
# Method in brief: as §1
# [21] = target: GlcNAc(b1-3)[GlcNAc(b1-4)][GlcNAc(b1-6)]GlcNAc
# Method in brief: as §1
# [22] = target: GlcNAc(b1-3)[GlcNAc(b1-6)]Gal(b1-4)GlcNAc
# Method in brief: as §1
# [23] = target: GlcNAc(b1-3)[GlcNAc(b1-6)]GalNAc
# Method in brief: as §1
# [24] = target: GlcNAc(b1-4)Gal(b1-4)GlcNAc
# Method in brief: as §1
# GlcNAc(b1-4)GlcNAc = target: GlcNAc(b1-4)GlcNAc
# Method in brief: as §1
# [25] = target: GlcNAc(b1-4)GlcNAc(b1-4)GlcNAc
# Method in brief: as §1
# [26] = target: GlcNAc(b1-4)GlcNAc(b1-4)GlcNAc(b1-4)GlcNAc(b1-4)GlcNAc
# Method in brief: as §1
# [27] = target: GlcNAc(b1-4)GlcNAc(b1-4)GlcNAc(b1-4)GlcNAc(b1-4)GlcNAc(b1-4)GlcNAc
# Method in brief: as §1
# [28] = target: GlcNAc(b1-4)[GlcNAc(b1-6)]GalNAc
# Method in brief: as §1
# [29] = target: GlcNAc(b1-6)Gal(b1-4)GlcNAc
# Method in brief: as §1
# GlcNAc(b1-6)GalNAc = target: GlcNAc(b1-6)GalNAc
# Method in brief: as §1
# [30] = target: GlcNAc6S(b1-3)Gal(b1-4)GlcNAc
# Method in brief: as §1
# Kdn(a2-3)Gal(b1-3)GalNAc = target: Kdn(a2-3)Gal(b1-3)GalNAc
# Method in brief: as §1
# Kdn(a2-3)Gal(b1-3)GlcNAc = target: Kdn(a2-3)Gal(b1-3)GlcNAc
# Method in brief: as §1
# Kdn(a2-3)Gal(b1-4)Glc = target: Kdn(a2-3)Gal(b1-4)Glc
# Method in brief: as §1
# Kdn(a2-3)Gal(b1-4)GlcNAc = target: Kdn(a2-3)Gal(b1-4)GlcNAc
# Method in brief: as §1
# [31] = target: Kdn(a2-3)Gal(b1-4)[Fuc(a1-3)]GlcNAc
# Method in brief: as §1
# Kdn(a2-6)Gal(b1-4)GlcNAc = target: Kdn(a2-6)Gal(b1-4)GlcNAc
# Method in brief: as §1
# [32] = target: Man(a1-2)Man(a1-2)Man(a1-3)Man
# Method in brief: as §1
# [33] = target: Man(a1-2)Man(a1-2)Man(a1-6)[Man(a1-3)]Man
# Method in brief: as §1
# Man(a1-2)Man(a1-3)Man = target: Man(a1-2)Man(a1-3)Man
# Method in brief: as §1
# [34] = target: Man(a1-2)Man(a1-3)[Man(a1-2)Man(a1-6)]Man
# Method in brief: as §1
binder,measurement,setting,value
B1,glycan array binding signal (z-score),GlcNAc(b1-3)Gal(b1-4)Glc,-0.035
same,glycan array binding signal (z-score),[1],-0.443
same,glycan array binding signal (z-score),[2],-0.12
same,glycan array binding signal (z-score),[3],0.859
same,glycan array binding signal (z-score),[4],0.582
same,glycan array binding signal (z-score),[5],-0.359
same,glycan array binding signal (z-score),[6],0.73
same,glycan array binding signal (z-score),[7],2.99
same,glycan array binding signal (z-score),[8],-0.179
same,glycan array binding signal (z-score),[9],-0.268
same,glycan array binding signal (z-score),[10],1.6
same,glycan array binding signal (z-score),[11],1.05
same,glycan array binding signal (z-score),[12],0.65
same,glycan array binding signal (z-score),[13],0.078
same,glycan array binding signal (z-score),[14],0.02
same,glycan array binding signal (z-score),[15],-0.327
same,glycan array binding signal (z-score),[16],2.84
same,glycan array binding signal (z-score),[17],0.146
same,glycan array binding signal (z-score),[18],-0.119
same,glycan array binding signal (z-score),[19],-0.066
same,glycan array binding signal (z-score),[20],-0.162
same,glycan array binding signal (z-score),GlcNAc(b1-3)GalNAc,0.177
same,glycan array binding signal (z-score),GlcNAc(b1-3)Man,0.078
same,glycan array binding signal (z-score),[21],0.571
same,glycan array binding signal (z-score),[22],-0.619
same,glycan array binding signal (z-score),[23],-0.502
same,glycan array binding signal (z-score),[24],0.405
same,glycan array binding signal (z-score),GlcNAc(b1-4)GlcNAc,-0.216
same,glycan array binding signal (z-score),[25],-0.628
same,glycan array binding signal (z-score),[26],4.7
same,glycan array binding signal (z-score),[27],-0.28
same,glycan array binding signal (z-score),[28],1.03
same,glycan array binding signal (z-score),[29],-0.583
same,glycan array binding signal (z-score),GlcNAc(b1-6)GalNAc,-0.166
same,glycan array binding signal (z-score),[30],-0.58
same,glycan array binding signal (z-score),Kdn(a2-3)Gal(b1-3)GalNAc,0.004
same,glycan array binding signal (z-score),Kdn(a2-3)Gal(b1-3)GlcNAc,-0.204
same,glycan array binding signal (z-score),Kdn(a2-3)Gal(b1-4)Glc,0.303
same,glycan array binding signal (z-score),Kdn(a2-3)Gal(b1-4)GlcNAc,-0.049
same,glycan array binding signal (z-score),[31],0.012
same,glycan array binding signal (z-score),Kdn(a2-6)Gal(b1-4)GlcNAc,0.229
same,glycan array binding signal (z-score),[32],-0.884
same,glycan array binding signal (z-score),[33],0.045
same,glycan array binding signal (z-score),Man(a1-2)Man(a1-3)Man,-0.501
same,glycan array binding signal (z-score),[34],-0.617
